Source: the supplement of paper PMC10320760
The data scatter; read single values as rough.

B1: Ydj1; a variant is named by its letters at X, in order (parent)
chain: MVKETKFYDILGVPVTATDVEIKKAYRKCALKYHPDKNPSEEAAEKFKEASAAYEILSDPEKRDIYDQFGEDGLSGAGGAGGFPGGGFGFGDDIFSQFFGAGGAQRPRGPQRGKDIKHEISASLEELYKGRTAKLALNKQILCKECEGRGGKKGAVKKCTSCNGQGIKFVTRQMGPMIQRFQTECDVCHGTGDIIDPKDRCKSCNGKKVENERKILEVHVEPGMKDGQRIVFKGEADQAPDVIPGDVVFIVSERPHKSFKRDGDDLVYEAEIDLLTAIAGGEFALEHVSGDWLKVGIVPGEVIAPGMRKVIEGKGMPIPKYGGYGNLIIKFTIKFPENHFTSEENLKKLEEILPPRIVPAIPKKATVDECVLADFDPAKYNRTRASRGGANYDSDEEEQGGEGVQCXXX

Variants of: B1
Assay: enrichment factor, frequency at 37 °C / frequency at 25 °C (thermotolerance selection) (ratio); higher = more growth at 37 °C, higher likelihood of farnesylation
Settings: with Saccharomyces cerevisiae ydj1Δ (yWS304); selective temperature 37 °C; reference temperature 25 °C
Procedure: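 Pooled library of all 8,000 Ydj1-CXXX C-terminal motif variants (native CASQ replaced by C + three variable residues, one codon per amino acid) expressed from a CEN plasmid in S. cerevisiae ydj1Δ (yWS304). The library was grown in SC-Ura liquid to A600 ~2 (~8 generations) at permissive 25 °C or selective 37 °C. Reads from 8 and 7 replicates were pooled and variants counted by NGS. Enrichment factor = frequency at 37 °C / frequency at 25 °C, with a +1 correction; it reports Ydj1-dependent thermotolerance, used as a read-out of farnesylation by yeast FTase.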

| Variant | enrichment factor |
| --- | --- |
| MAV | 1.8 |
| MAY | 1.52 |
| MAW | 1.51 |
| YCF | 0.927 |
| YCI | 1.32 |
| YCE | 1.69 |
| YCN | 4.21 |
| YCG | 2.32 |
| YCL | 1.36 |
| YCH | 2.35 |
| YCP | 1.83 |
| YCD | 1.07 |
| YCK | 0.251 |
| YCM | 1.62 |
| YCC | 1.16 |
| YCA | 1.45 |
| DAV | 0.755 |
| DAT | 0.277 |
| DAY | 1.02 |
| DAW | 0.499 |
| QCH | 2.03 |
| QCE | 1.7 |
| QCN | 1.65 |
| QCM | 0.95 |

| Variant | enrichment factor |
| --- | --- |
| QCP | 0.2 |
| QCD | 1.41 |
| QCK | 1 |
| QCF | 0.568 |
| QCC | 0.235 |
| QCI | 0.629 |
| QCL | 1.56 |
| QCA | 0.463 |
| QCG | 1.27 |
| NCP | 0.156 |
| NCN | 1.63 |
| NCI | 0.499 |
| NCC | 0.298 |
| NCD | 0.805 |
| NCL | 1.51 |
| NCM | 1.33 |
| NCK | 0.506 |
| NCF | 0.957 |
| NCE | 0.867 |
| NCA | 0.869 |
| NCH | 2.33 |
| NCG | 1.45 |
| FAY | 2.57 |
| FAV | 3.17 |

| Variant | enrichment factor |
| --- | --- |
| FAW | 0.872 |
| DCC | 0.0618 |
| DCN | 1.24 |
| DCP | 0.123 |
| DCM | 0.579 |
| DCH | 0.784 |
| DCF | 0.161 |
| DCD | 0.169 |
| DCL | 0.334 |
| DCI | 0.274 |
| DCG | 0.334 |
| DCE | 0.202 |
| DCA | 0.643 |
| DCK | 0.122 |
| CAV | 0.356 |
| CAW | 0.724 |
| CAY | 2.03 |
| LAV | 1.78 |
| LAY | 2.27 |
| LAW | 1.73 |
| FCL | 1.16 |
| FCK | 0.159 |
| FCP | 1.95 |
| FCM | 0.579 |

| Variant | enrichment factor |
| --- | --- |
| FCH | 0.869 |
| FCC | 0.993 |
| FCG | 1.62 |
| FCA | 2.15 |
| FCQ | 2.78 |
| FCN | 3.23 |
| FCF | 0.579 |
| FCE | 0.576 |
| FCD | 0.991 |
| FCI | 2.9 |
| ECH | 0.79 |
| ECG | 1.6 |
| ECD | 0.543 |
| ECM | 0.806 |
| ECP | 0.139 |
| ECI | 0.691 |
| ECQ | 1.6 |
| ECC | 0.439 |
| ECL | 1.3 |
| ECN | 2.79 |
| ECK | 1.31 |
| ECE | 1.02 |
| ECF | 0.545 |
| ECA | 0.386 |

| Variant | enrichment factor |
| --- | --- |
| TCL | 1.42 |
| TCN | 1.39 |
| TCM | 1.19 |
| TCH | 2.12 |
| TCC | 0.386 |
| TCE | 1.95 |
| TCD | 2.01 |
| TCG | 0.842 |
| TCA | 0.737 |
| TCK | 1.4 |
| TCI | 1.31 |
| TCP | 0.129 |
| KCD | 2.6 |
| KCQ | 0.369 |
| KCF | 0.632 |
| KCE | 1.72 |
| KCC | 0.169 |
| KCM | 0.647 |
| KCG | 1.29 |
| KCH | 1.65 |
| KCN | 2.34 |
| KCI | 0.217 |
| KCL | 0.523 |
| KCA | 0.772 |

| Variant | enrichment factor |
| --- | --- |
| KCK | 0.204 |
| KCP | 0.196 |
| TAY | 2.34 |
| TAW | 1.66 |
| TAT | 1.87 |
| TAV | 1.67 |
| CCF | 2.32 |
| CCA | 0.677 |
| CCE | 2.41 |
| CCN | 0.354 |
| CCD | 2.21 |
| CCH | 0.178 |
| CCP | 0.371 |
| CCM | 0.886 |
| CCI | 0.334 |
| CCK | 0.657 |
| CCL | 0.804 |
| CCG | 0.165 |
| CCC | 0.65 |
| SAV | 1.64 |
| SAY | 1.98 |
| SAW | 1.59 |
| SAT | 1.49 |
| HAV | 2.19 |

| Variant | enrichment factor |
| --- | --- |
| HAY | 2.23 |
| HAW | 1.4 |
| ACN | 1.82 |
| ACC | 0.184 |
| ACF | 0.356 |
| ACP | 0.212 |
| ACK | 1.68 |
| ACA | 0.211 |
| ACL | 1.18 |
| ACI | 0.73 |
| ACQ | 0.94 |
| ACG | 1.21 |
| ACH | 1.12 |
| ACM | 1.7 |
| ACD | 2.06 |
| ACE | 2.02 |
| GCM | 1.82 |
| GCF | 1.54 |
| GCA | 0.579 |
| GCD | 0.319 |
| GCG | 2.13 |
| GCK | 0.124 |
| GCH | 1.43 |
| GCC | 0.204 |

| Variant | enrichment factor |
| --- | --- |
| GCP | 0.158 |
| GCE | 0.479 |
| GCL | 0.927 |
| GCN | 2.09 |
| GCI | 0.29 |
| GCQ | 1.78 |
| VAY | 3.23 |
| VAT | 1.66 |
| VAW | 1.25 |
| VAV | 3.41 |
| YAY | 3.02 |
| YAT | 3.14 |
| YAV | 3.9 |
| YAW | 1.89 |
| KAV | 1.3 |
| KAY | 1.75 |
| KAW | 1.12 |
| EAY | 1.46 |
| EAV | 1.17 |
| EAW | 1.57 |
| PCI | 0.938 |
| PCN | 1.46 |
| PCA | 0.414 |
| PCM | 0.908 |

| Variant | enrichment factor |
| --- | --- |
| PCH | 0.676 |
| PCL | 1.46 |
| PCG | 0.531 |
| PCC | 0.145 |
| PCP | 0.184 |
| PCE | 1.83 |
| PCK | 0.758 |
| PCF | 0.529 |
| PCD | 1.5 |
| WAY | 1.86 |
| WAV | 1.11 |
| WAT | 1.68 |
| WAW | 1.01 |
| VCN | 1.95 |
| VCP | 0.151 |
| VCD | 2.29 |
| VCE | 2.04 |
| VCI | 1.1 |
| VCL | 1.39 |
| VCG | 0.74 |
| VCM | 0.74 |
| VCC | 0.877 |
| VCK | 1.98 |
| VCA | 0.812 |

| Variant | enrichment factor |
| --- | --- |
| VCH | 1.68 |
| VCF | 1.28 |
| QAV | 1.59 |
| QAY | 1.93 |
| QAW | 1.7 |
| AAV | 1.73 |
| AAY | 2.32 |
| AAW | 1.7 |
| RAV | 1.31 |
| RAY | 1.09 |
| RAW | 1.06 |
| HCQ | 0.948 |
| HCD | 1.41 |
| HCK | 0.312 |
| HCG | 1.24 |
| HCA | 1.16 |
| HCH | 2.97 |
| HCI | 1.01 |
| HCN | 1.41 |
| HCL | 0.944 |
| HCE | 2.23 |
| HCP | 1.61 |
| HCF | 0.515 |
| HCM | 2.28 |

| Variant | enrichment factor |
| --- | --- |
| HCC | 0.153 |
| RCE | 1.88 |
| RCI | 0.52 |
| RCM | 1.51 |
| RCG | 1.25 |
| RCN | 0.927 |
| RCD | 2.59 |
| RCL | 0.734 |
| RCC | 0.241 |
| RCP | 0.0824 |
| RCK | 0.994 |
| RCF | 0.366 |
| RCA | 0.579 |
| RCH | 2.36 |
| MCF | 0.772 |
| MCI | 0.279 |
| MCA | 1.01 |
| MCK | 0.454 |
| MCM | 0.463 |
| MCH | 1.83 |
| MCL | 0.664 |
| MCN | 0.899 |
| MCE | 1.59 |
| MCC | 1.16 |

| Variant | enrichment factor |
| --- | --- |
| MCQ | 1.73 |
| MCG | 1.53 |
| MCP | 0.133 |
| MCD | 1.38 |
| WCP | 0.434 |
| WCE | 2.69 |
| WCD | 0.549 |
| WCC | 1.74 |
| WCL | 1.45 |
| WCN | 3.59 |
| WCA | 0.579 |
| WCK | 0.389 |
| WCF | 1.54 |
| WCG | 0.869 |
| WCI | 0.579 |
| WCH | 0.252 |
| WCM | 0.772 |
| LCM | 0.827 |
| LCH | 0.477 |
| LCE | 1.53 |
| LCC | 1.45 |
| LCL | 0.29 |
| LCP | 0.236 |
| LCI | 0.281 |

| Variant | enrichment factor |
| --- | --- |
| LCA | 0.572 |
| LCG | 0.353 |
| LCN | 0.923 |
| LCD | 1.46 |
| LCF | 0.695 |
| LCK | 0.946 |
| LCQ | 0.843 |
| NAY | 2.19 |
| NAW | 1.45 |
| NAV | 1.28 |
| GAV | 1.53 |
| GAY | 1.96 |
| GAW | 1.57 |
| IAY | 1.76 |
| IAV | 2.99 |
| IAW | 1.46 |
| ICH | 0.735 |
| ICK | 1.24 |
| ICF | 0.405 |
| ICA | 0.637 |
| ICE | 1.04 |
| ICI | 0.734 |
| ICP | 0.137 |
| ICC | 0.463 |

| Variant | enrichment factor |
| --- | --- |
| ICN | 0.922 |
| ICQ | 1 |
| ICL | 0.699 |
| ICD | 1.36 |
| ICG | 0.837 |
| ICM | 0.724 |
| SCH | 0.965 |
| SCL | 0.966 |
| SCN | 0.526 |
| SCG | 0.993 |
| SCA | 0.695 |
| SCI | 0.805 |
| SCD | 1.5 |
| SCM | 0.49 |
| SCF | 0.772 |
| SCC | 0.341 |
| SCP | 0.113 |
| SCK | 0.815 |
| SCE | 1.88 |
| PAV | 1.13 |
| PAY | 1.18 |
| PAW | 0.732 |
